Results reported in US20050002959A1 (GlaxoSmithKline, published 2005).
Where “and” joins values, the source holds several entries; their conditions need not be identical. Identical values can stand only once.

T1: recombinant human IL4 (non-glycosylated, produced in E. coli) (human, UniProt P05112 25-153)
T1 sequence (looked up): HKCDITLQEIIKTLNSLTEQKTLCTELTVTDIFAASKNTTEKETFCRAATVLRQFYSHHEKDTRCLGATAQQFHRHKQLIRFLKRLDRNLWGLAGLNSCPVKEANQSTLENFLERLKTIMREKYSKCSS

T2: 125I-labelled recombinant human IL4 (human, UniProt P05112 25-153, radioiodinated (125I); 'thought to be iodinated at the accessible tyrosine, residue 124')
T2 sequence (looked up): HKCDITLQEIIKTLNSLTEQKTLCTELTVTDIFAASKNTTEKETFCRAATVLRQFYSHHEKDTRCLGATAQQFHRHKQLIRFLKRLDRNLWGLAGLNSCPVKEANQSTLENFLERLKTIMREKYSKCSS

B1: murine MAb 3B9 (antibody, IgG1, V domains shown)
VH: QVTLKESGPGILQPSQTLSLTCSFSGFSLSTSGMGVSWIRQPSGKGLEWLAHIYWDDDKRYNPSLKSRLTISKDTSSNQVFLKITSVDTADTATYYCARRETVFYWYFDVWGAGTTVTVSS
VL: DIVLTQSPASLAVSLGQRATISCKASQSVDYDGDSYMNWYQQKPGQPPKLLIYAASNLESGIPARFSGSGSGTDFTLNIHPVEEEDAATYYCQQSNEDPPTFGGGTKLEIKR
notes: Mouse hybridoma antibody, isotype IgG1, kappa light chain; also called 3B9 (murine); murine 3B9
B2: Fab fragment of murine MAb 3B9 (Fab, V domains shown)
VH: QVTLKESGPGILQPSQTLSLTCSFSGFSLSTSGMGVSWIRQPSGKGLEWLAHIYWDDDKRYNPSLKSRLTISKDTSSNQVFLKITSVDTADTATYYCARRETVFYWYFDVWGAGTTVTVSS
VL: DIVLTQSPASLAVSLGQRATISCKASQSVDYDGDSYMNWYQQKPGQPPKLLIYAASNLESGIPARFSGSGSGTDFTLNIHPVEEEDAATYYCQQSNEDPPTFGGGTKLEIKR
notes: Fab fragment of the murine 3B9 antibody; also called 3B9 Fab; Murine 3B9 (Fab)

Columns and labels:
[1] = biological target: T1, recombinant human IL4 …; assay: cell-based or functional assay
[2] = biological target: T1, recombinant human IL4 …; assay: cell-based or functional assay; remark: listed apart in the source
[3] = biological target: T1, recombinant human IL4 …; assay: titration microcalorimetry, calculated for pH 7.4, 150 mM NaCl, 25° C. by the Gibbs-Helmholz equation
Protocol: (§1) The affinity and detailed thermodynamics of IL4 binding to humanized MAb 3B9 and murine 3B9 (Example 1) were determined by titration microcalorimetry.

[4] = biological target: T1, recombinant human IL4 …; assay: titration microcalorimetry, pH 7.4, 150 mM NaCl, 25° C.
Protocol: as §1

[5] = biological target: T2, 125I-labelled recombinant human IL4; assay: receptor binding assay (RBA): inhibition of 125I-rhIL4 binding to gibbon MLA cells
Protocol: The ability of 3B9 to inhibit the binding of IL4 to its receptor was studied using ¹²⁵I-rhIL4 binding to the gibbon cell line, MLA [ATCC TIB201], that bears approximately 6000 receptors per cell. MLA cells were incubated with […] for 30 minutes at 37° C. Uptake of radioactivity was determined in a gamma counter after separation of cell bound ¹²⁵I-IL4 by centrifugation through an oil-gradient. Non-specific binding was determined by incubating in the presence of a 100-fold molar excess of unlabelled IL4 [Park et al, J. Exp. Med., 166:476-488 (1987)]. The IC₅₀ value for unlabeled IL4 in this assay was 22 pM when the amount of (added) IL4 was 83 pM. For intact murine (IgG) 3B9 the IC₅₀ was 63 pM, and 93 pM for the Fab fragment.

Row | Binder | IC50, inhibition of IgE secretion in the presence of 667 pM IL4 [1] | IC50, inhibition of IgE secretion in the presence of 1.7 nM IL4 [1] | IC50, B cell proliferation (3H-thymidine incorporation, IL4-stimulated human tonsillar B lymphocytes) [2] | IC50, IgE synthesis (IL4-stimulated human peripheral blood lymphocytes, IgE ELISA) [2] | Kd [3] | -TΔS [4] | ΔG [4] | ΔH [4] | IC50, B cell proliferation [2] | IC50, CD23 induction [2] | IC50, IgE synthesis [2] | IC50, T cell proliferation [2] | IC50 [5]
1 | B1 | 0.65 nM | 1.9 nM | 0.103 nM and 0.079 nM and 0.12 nM | 0.658 nM and 0.37 nM and 1.07 nM | 0.019 nM | 7.2 kcal/mol IL4 | -13.3 kcal/mol IL4 | -20.5 kcal/mol IL4 |  |  |  |  | 
2 | B2 |  | 5 nM |  |  |  |  |  |  | 0.393 nM | 0.216 nM | 1.17 nM | 0.108 nM | 0.093 nM
